From the BET-seq Pho4 binding data (Le et al. 2018) come the findings set out here.

Some of the results follow. The energies were worked out here from pooled read counts, against the library average; single values are noisy.

In this assay the target is T1, Pho4 (S. cerevisiae) (UniProt P07270).
T1 sequence: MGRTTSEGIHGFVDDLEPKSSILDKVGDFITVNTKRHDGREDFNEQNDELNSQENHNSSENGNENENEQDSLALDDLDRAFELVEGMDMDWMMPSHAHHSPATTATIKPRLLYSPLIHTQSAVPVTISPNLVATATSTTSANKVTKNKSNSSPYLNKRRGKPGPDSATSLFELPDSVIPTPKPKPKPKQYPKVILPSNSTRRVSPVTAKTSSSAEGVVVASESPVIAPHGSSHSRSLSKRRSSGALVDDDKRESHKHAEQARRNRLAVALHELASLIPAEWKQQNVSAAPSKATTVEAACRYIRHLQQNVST
As to the kind of experiment: relative binding free energy (BET-seq); higher = weaker binding. The settings on record: reference: library average.
As to ATGGTCACGTGATATA, the “relative binding free energy” value was 0.13 kcal/mol.

With TCGATCACGTGTGGTA, the “relative binding free energy” value turned out to be 0.13 kcal/mol.

On to AGGGCCACGTGTGGCT, for which the “relative binding free energy” value was -0.03 kcal/mol. The result for TGGGCCACGTGTACTG reads 0 kcal/mol; that for GGTGTCACGTGCGTGT, 0.01 kcal/mol; that for GTGCACACGTGATTTT, 0.26 kcal/mol. The result for GATAACACGTGTTATT reads -0.01 kcal/mol; that for TTTTACACGTGGCATG, 0.05 kcal/mol; that for CGTGTCACGTGACGTG, 0.06 kcal/mol. The result for GCCGGCACGTGGTGCG reads -0.12 kcal/mol; that for TTTAACACGTGTGGTG, 0.05 kcal/mol. Regarding AGAAGCACGTGGGGGT, the “relative binding free energy” value was -0.21 kcal/mol. As for TTGGTCACGTGATGCA, the figure is 0.12 kcal/mol. The result for CAAGTCACGTGAGTAG reads 0.32 kcal/mol; that for CATGGCACGTGGATAG, 0.11 kcal/mol.

GGGACCACGTGTTGTT: the “relative binding free energy” value amounted to 0.05 kcal/mol. The result for TTTGACACGTGTGAGC reads 0.09 kcal/mol; that for ATGTTCACGTGGTAAG, 0.25 kcal/mol.

TTATACACGTGTATGC: the “relative binding free energy” value is 0.03 kcal/mol. As for TCTTTCACGTGTATGT, the figure is 0.21 kcal/mol; as for TAGAGCACGTGTTTGG, -0.05 kcal/mol; as for GGTAGCACGTGTGAGA, -0.01 kcal/mol. As for GGGGACACGTGGATAT, the figure is 0.04 kcal/mol. AGTCTCACGTGATGTT: the “relative binding free energy” value was found to be 0.29 kcal/mol.

TTGAACACGTGGTAGG: the “relative binding free energy” value was -0.04 kcal/mol. The result for GAGTGCACGTGTGAGG reads 0.19 kcal/mol; that for ATGTGCACGTGTTCGG, 0.02 kcal/mol. The result for GTATCCACGTGTTGTT reads 0.13 kcal/mol; that for GGTTACACGTGGTCAG, 0.13 kcal/mol. Turning to GTTGTCACGTGGTTGA, the “relative binding free energy” value amounted to 0.17 kcal/mol. As for TGAATCACGTGGAGGA, the figure is 0.12 kcal/mol; as for GTGAACACGTGTGTTT, -0.02 kcal/mol; as for ACGGGCACGTGGAATG, -0.09 kcal/mol. On to ATCAGCACGTGGTTGA, for which the “relative binding free energy” value is -0.1 kcal/mol.

Take GTTTCCACGTGATGGG: the “relative binding free energy” value came out at 0.28 kcal/mol. As to TTTATCACGTGAGCTT, the “relative binding free energy” value was found to be 0.31 kcal/mol.

For the sequence GCAGGCACGTGTGGTT, the “relative binding free energy” value came to 0.01 kcal/mol. On to AGATGCACGTGGATGG, for which the “relative binding free energy” value was -0.03 kcal/mol. As for TTTTGCACGTGTTTTG, the figure is 0.13 kcal/mol; as for ATATGCACGTGATTTT, 0.09 kcal/mol. As for TTTTTCACGTGGTCGC, the figure is 0.3 kcal/mol. As for ATTGACACGTGACGGG, the figure is 0.13 kcal/mol; as for CAAGTCACGTGTGGTG, 0.05 kcal/mol. Regarding CGGTGCACGTGCGGGT, the “relative binding free energy” value was -0.13 kcal/mol. As for TGGCTCACGTGATTGG, the figure is 0.26 kcal/mol; as for GATTACACGTGGGCGT, -0.01 kcal/mol; as for CATGGCACGTGGTGTG, -0.17 kcal/mol. As to ATGGACACGTGCATGG, the “relative binding free energy” value is -0.03 kcal/mol. As for GGGTGCACGTGGGCTA, the figure is -0.16 kcal/mol; as for TTTTTCACGTGTCGAA, 0.17 kcal/mol; as for TCAAGCACGTGAGAGG, 0.2 kcal/mol.

For the sequence AGAGTCACGTGGTCTT, the “relative binding free energy” value is 0.1 kcal/mol. As for CGGATCACGTGGTTCG, the figure is 0.26 kcal/mol; as for TTCTTCACGTGTGGGA, 0.26 kcal/mol. As for TGGATCACGTGGTCGT, the figure is 0.13 kcal/mol. The result for AGTGACACGTGTGGTC reads 0.03 kcal/mol. Take AAGGGCACGTGGGCGA: the “relative binding free energy” value was -0.29 kcal/mol.

Consider TGCGTCACGTGTGGAA, for which the “relative binding free energy” value was 0.1 kcal/mol. Take CATTTCACGTGGTCGG: the “relative binding free energy” value came out at 0.18 kcal/mol. As for GGGAACACGTGTATGT, the figure is 0.09 kcal/mol.

Regarding GTGGGCACGTGCAGGG, the “relative binding free energy” value is -0.01 kcal/mol.

As for GGATTCACGTGTATGA, the “relative binding free energy” value was found to be 0.4 kcal/mol.

As to AGGGGCACGTGCACGG, the “relative binding free energy” value was -0.15 kcal/mol. TTGTGCACGTGCATCG: the “relative binding free energy” value was found to be 0.04 kcal/mol. The result for GGTTACACGTGAAAAT reads 0.51 kcal/mol. As for TGATGCACGTGTAGAA, the figure is 0.18 kcal/mol; as for ATGTTCACGTGTTCGT, 0.24 kcal/mol. The result for AACGTCACGTGGAGGG reads -0.05 kcal/mol; that for TCTGTCACGTGTAGGT, -0.01 kcal/mol; that for AGGTGCACGTGATGCA, 0.02 kcal/mol. In the case of CGTGGCACGTGAGGAC, the “relative binding free energy” value stood at 0.16 kcal/mol. As for TGCTGCACGTGGGTGC, the figure is -0.19 kcal/mol. For GTAAACACGTGCTGGG, the “relative binding free energy” value was 0.16 kcal/mol.

For GTGGGCACGTGTGTCA, the “relative binding free energy” value is -0.02 kcal/mol. The result for AGTGGCACGTGAGTAA reads 0.03 kcal/mol; that for GATGGCACGTGAAGGC, 0.22 kcal/mol; that for ATTTGCACGTGTGGTT, 0.11 kcal/mol.

Take GTTAGCACGTGTATAA: the “relative binding free energy” value was -0.07 kcal/mol.

GGCGGCACGTGGTGTC: the “relative binding free energy” value is 0 kcal/mol. As for TGTACCACGTGATGGA, the figure is 0.08 kcal/mol. For AGATACACGTGGCTTG, the “relative binding free energy” value was -0.01 kcal/mol. As for CTTTACACGTGGTTTT, the figure is 0.02 kcal/mol; as for GTGGTCACGTGCGTCT, -0.04 kcal/mol. The result for GGTCACACGTGAGGAT reads 0.28 kcal/mol; that for GGGTACACGTGACGTT, 0.29 kcal/mol; that for TTGCCCACGTGGGGGA, -0.33 kcal/mol. As for TGTTGCACGTGGGCAG, the figure is -0.27 kcal/mol. Take GTAGTCACGTGTTTAT: the “relative binding free energy” value was found to be 0.15 kcal/mol. As for TTGCACACGTGTTTGA, the figure is 0.07 kcal/mol; as for TGGGACACGTGCGTTA, -0.14 kcal/mol. Turning to TATTGCACGTGGGCCG, the “relative binding free energy” value was -0.11 kcal/mol.

For GGACACACGTGGGGAG, the “relative binding free energy” value was -0.05 kcal/mol. Regarding TCTGGCACGTGCTGGG, the “relative binding free energy” value was 0 kcal/mol.

Take AGACGCACGTGGGGGG: the “relative binding free energy” value is -0.29 kcal/mol. As for GGTGTCACGTGATGAC, the figure is 0.17 kcal/mol; as for TTGTACACGTGACTGG, 0.17 kcal/mol.

Regarding TATGGCACGTGTTGCT, the “relative binding free energy” value was -0.19 kcal/mol.

On to TAGTACACGTGGAGTG, for which the “relative binding free energy” value worked out at 0.02 kcal/mol. With TGTTCCACGTGTGTAG, the “relative binding free energy” value came out at 0.07 kcal/mol. The result for ATTGACACGTGTGCGA reads -0.03 kcal/mol; that for TGAGTCACGTGTTATC, 0.22 kcal/mol; that for AATGGCACGTGGATTA, -0.05 kcal/mol. On to CGGTGCACGTGCAAGG, for which the “relative binding free energy” value is 0.09 kcal/mol. The result for CATGCCACGTGAGGGT reads 0.06 kcal/mol; that for TGGGGCACGTGCGTCT, -0.24 kcal/mol; that for GATGACACGTGAGTTG, 0.36 kcal/mol.

With GGGGACACGTGGATTT, the “relative binding free energy” value worked out at 0.17 kcal/mol. The result for ACGGTCACGTGAGTGT reads 0.35 kcal/mol. Turning to TTGGCCACGTGGGATT, the “relative binding free energy” value is -0.05 kcal/mol. As for GTTTTCACGTGTACGC, the figure is 0.41 kcal/mol; as for AAGTTCACGTGAGTAG, 0.39 kcal/mol; as for TTTGACACGTGAGTGG, 0.32 kcal/mol. With GATAACACGTGGTTGT, the “relative binding free energy” value was found to be 0.01 kcal/mol.

Regarding GAGTACACGTGGATTG, the “relative binding free energy” value worked out at 0.06 kcal/mol.

For the sequence TATTACACGTGGGTTT, the “relative binding free energy” value was found to be 0.01 kcal/mol.
